# Measurements published in the BET-seq Pho4 binding data (Le et al. 2018).
# Some of the results follow. The energies were worked out here from pooled read counts, against the library average; single values are noisy.
# Target: T1, Pho4 (S. cerevisiae) (UniProt P07270)
# T1 sequence: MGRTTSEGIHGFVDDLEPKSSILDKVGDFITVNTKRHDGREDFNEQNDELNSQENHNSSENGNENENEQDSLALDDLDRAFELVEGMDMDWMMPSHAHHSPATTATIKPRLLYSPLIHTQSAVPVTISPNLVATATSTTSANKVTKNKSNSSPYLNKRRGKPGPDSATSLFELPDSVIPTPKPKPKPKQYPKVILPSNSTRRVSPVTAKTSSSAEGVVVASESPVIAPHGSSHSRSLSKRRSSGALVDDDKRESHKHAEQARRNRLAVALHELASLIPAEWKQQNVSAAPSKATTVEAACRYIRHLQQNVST
# Test: relative binding free energy (BET-seq); higher = weaker binding
# Conditions: reference: library average
row,Sequence,relative binding free energy [kcal/mol]
1,TTAGTCACGTGGAGTA,0.05
2,GGGTCCACGTGTAATG,0.02
3,AAAGACACGTGTGTGT,-0.06
4,TAGGTCACGTGGTCCG,0.1
5,GTTCACACGTGGTTGG,0.07
6,TAATTCACGTGCGGTG,0.22
7,CGCTTCACGTGTGGAG,0.34
8,TCGATCACGTGGTAGG,-0.03
9,ATACTCACGTGTGTGG,0.22
10,TAGTTCACGTGTGAGT,0.43
11,AGCGGCACGTGTGCGG,-0.15
12,GAACGCACGTGGGGGA,-0.21
13,TGATTCACGTGTAGTG,0.24
14,CAGTTCACGTGGGTGT,0.19
15,AGCCGCACGTGAGTGG,0.17
16,AGGGTCACGTGGGTAC,-0.04
17,AAGATCACGTGCGGTG,0.19
18,ATGGGCACGTGGCCAG,-0.17
19,AGTTCCACGTGGTGGT,-0.14
20,TTAGTCACGTGCGTGA,0.14
21,TTAGGCACGTGGAATG,0.08
22,TTGGCCACGTGCGGGC,-0.09
23,CGGATCACGTGGTGTG,0.09
24,ATGAACACGTGGGGTC,-0.07
25,GTTTTCACGTGGAAGC,0.32
26,AGTGGCACGTGCGTTA,-0.35

row,Sequence,relative binding free energy [kcal/mol]
1,TTTTGCACGTGAGTGG,0.12
2,TAGCGCACGTGGGTTG,-0.2
3,GGAGTCACGTGTGTCG,0.18
4,CTGTACACGTGGGTGA,-0.19
5,CTTCTCACGTGGGTAG,0.17
6,GACGGCACGTGGCTGG,-0.14
7,TATAACACGTGATTTT,0.19
8,TTCGTCACGTGCGGGT,0.01
9,GAGCGCACGTGGTTGG,-0.02
10,GCATTCACGTGAGGTG,0.29
11,GGCGGCACGTGCAGGG,-0.06
12,TGTACCACGTGGGTAT,-0.18
13,AGGGTCACGTGGCGGC,0.09
14,TCTGTCACGTGTAATG,0.01
15,TAGAACACGTGTTGTA,0.07
16,TTAAGCACGTGTTGCC,0
17,AGCTTCACGTGTGTGA,0.18
18,TTTAGCACGTGTAAAT,0.08
19,GGGCTCACGTGGGTTC,0.14
20,GTCTTCACGTGGGAAG,0.28
21,TGTATCACGTGTTAGT,0.14
22,TAGGGCACGTGGATAA,-0.03
23,GTTGCCACGTGGCCGG,-0.09
24,GTTAACACGTGTGCTG,0.08
25,ATTTGCACGTGGAAGT,0.07
26,TTTGGCACGTGTCTAA,-0.06

row,Sequence,relative binding free energy [kcal/mol]
1,GAGGGCACGTGCTTTG,0.08
2,GCAATCACGTGAGGGT,0.28
3,TATTGCACGTGGGCGT,-0.2
4,GTTTGCACGTGTCTTT,0.01
5,GTATTCACGTGTATTG,0.25
6,CAGAGCACGTGGGTGA,-0.19
7,GTTAACACGTGTGCAG,0.06
8,TAAGTCACGTGGAGGG,-0.04
9,TGGGTCACGTGTACTG,0.14
10,CATTTCACGTGGATTT,0.13
11,ATATACACGTGTCGGT,-0.02
12,CAGGGCACGTGTGCGT,-0.09
13,AGGTCCACGTGCTAGG,0.12
14,AGGCCCACGTGGGTGG,-0.28
15,AGGTCCACGTGGGGTC,-0.17
16,GTCGGCACGTGGTGAG,-0.02
17,CAACTCACGTGTTGGT,0.31
18,GGAGACACGTGGAGGA,0.06
19,TGGTGCACGTGGAGCT,-0.04
20,TAAATCACGTGTTTGT,0.18
21,TTAGCCACGTGGCGTG,-0.2
22,GGGGACACGTGGGCCT,-0.19
23,GATGGCACGTGATGGT,0.17
24,GTGTTCACGTGTCGGG,0.29
25,TGCATCACGTGTGTGG,0.13
26,ATTGGCACGTGATAAG,-0.09

row,Sequence,relative binding free energy [kcal/mol]
1,CGTGGCACGTGCAATG,-0.03
2,ATTTTCACGTGACTGT,0.19
3,AAATGCACGTGAGATT,0.28
4,TGACTCACGTGGGGGG,0.03
5,TCTTGCACGTGATTAG,0.15
6,GGGGTCACGTGAGAAC,0.48
7,TCTTTCACGTGTGGGG,0.4
8,TGATACACGTGATGTT,0.19
9,AATTTCACGTGTCTGT,0.31
10,GTATGCACGTGTGTCG,0.06
11,CTTTACACGTGTAGGG,0.21
12,ATAGGCACGTGCCGGG,-0.14
13,TATTTCACGTGGATTC,0.16
14,GTGTGCACGTGGCATT,-0.13
15,ATGGACACGTGACGTG,0.17
16,AGTCTCACGTGGGGTG,0.07
17,AATGTCACGTGGGTCG,0.07
18,ATGAGCACGTGCGTTG,-0.25
19,CGATGCACGTGTTAGT,0.04
20,CCTGACACGTGTGGGT,0.07
21,GTGTTCACGTGGACTA,0.31
22,GTTGGCACGTGGGTCC,-0.14
23,TGGAGCACGTGTCAGG,-0.07
24,ATTTTCACGTGGTCAT,0.19
25,TAAGGCACGTGGAGTA,-0.15
26,AGTCGCACGTGCAGTG,0.08

row,Sequence,relative binding free energy [kcal/mol]
1,AGTTGCACGTGTTACG,0.12
2,ATGTGCACGTGCTGTA,-0.13
3,GTCTCCACGTGGTGGG,-0.05
4,GGCGGCACGTGTTGTT,0.05
5,AGTTTCACGTGAGAGA,0.37
6,GTTGTCACGTGTTTAG,0.22
7,GATTACACGTGGTGGT,0.12
8,GGGTGCACGTGGTCGC,-0.15
9,TAGCTCACGTGCGGTG,0.08
10,TGCAGCACGTGGGATT,-0.14
11,AAGGGCACGTGAAATG,0.13
12,ATTGTCACGTGCAGTA,0.02
13,TGATGCACGTGTAGGG,-0.02
14,ATGGGCACGTGGGTAA,-0.21
15,GGGGACACGTGTGGGA,0.12
16,CATGCCACGTGGTGTT,-0.16
17,TACGACACGTGTTGGT,0.07
18,GTATTCACGTGTTTGC,0.23
19,TGGGGCACGTGGCGGT,-0.14
20,AAGTGCACGTGTTAGG,-0.03
21,CATAGCACGTGGTTGT,-0.26
22,TCAGTCACGTGTATGA,0.09
23,GCTCGCACGTGGTGGC,0.02
24,GGGACCACGTGATTTG,0.34
25,TGATTCACGTGGTGCA,0.2
26,AATAGCACGTGCGGTG,-0.16

row,Sequence,relative binding free energy [kcal/mol]
1,TTCATCACGTGAGGTT,0.37
2,TGTAACACGTGATTGG,0.16
3,TAGCGCACGTGAGTAG,0.12
4,GTGTGCACGTGGCAGG,-0.11
5,TGTTGCACGTGTAGGC,0.05
6,GTTTACACGTGGGTTT,0.13
7,CTGGCCACGTGTTGGG,-0.21
8,GTGAGCACGTGGAGAA,-0.1
9,TGTAGCACGTGTGCAG,0
10,TCGTGCACGTGGCGGT,-0.16
11,AGTTTCACGTGTCGAA,0.16
12,ATCTGCACGTGCGGGG,-0.09
13,CAAATCACGTGAGTGT,0.36
14,GTCGGCACGTGCGCGT,-0.06
15,ATGTCCACGTGTAGTT,0.03
16,ATGTTCACGTGACTGT,0.3
17,GAGTTCACGTGGGTGG,0.24
18,AGTGCCACGTGGTGAT,-0.15
19,ACTAGCACGTGGTGGT,-0.19
20,TGGCGCACGTGAAGAG,0.3
21,ACTTTCACGTGGGTTC,0.13
22,ACTTTCACGTGGGTTG,0.14
23,TTACTCACGTGTTTTT,0.24
24,AGTTGCACGTGCGTTT,-0.03
25,ATAGCCACGTGTTAGG,-0.16
26,TTTTTCACGTGCATAA,0.22

row,Sequence,relative binding free energy [kcal/mol]
1,GTGGACACGTGGCTAG,-0.12
2,TAGTGCACGTGAATTT,0.37
3,TTGGGCACGTGGGGCT,-0.17
4,ATGGTCACGTGGCAGG,0.01
5,TGACTCACGTGGGGCG,0.01
6,GTACGCACGTGGTTAG,0.02
7,AGATTCACGTGAGGCT,0.26
8,GCAGGCACGTGTTAGT,-0.15
9,AGCGTCACGTGGTAGC,0.07
10,ATATACACGTGGATGA,0.06
11,GGGTACACGTGCGGGG,0.03
12,TGCTACACGTGCGCGG,0.12
13,TAACGCACGTGGGGCT,-0.17
14,ATCTGCACGTGTATAG,0.15
15,AATAGCACGTGTGGTG,0
16,TGGGTCACGTGGAATG,0.29
17,TTATACACGTGTAATG,0.08
18,TTTAGCACGTGTAATG,0.11
19,TTGGGCACGTGAGGAA,0.16
20,ATTGACACGTGTTTGC,0.03
21,ATAGCCACGTGGTGTG,-0.14
22,GGTAGCACGTGTCATG,-0.04
23,GATTTCACGTGATTTC,0.45
24,GTATGCACGTGTGTTC,-0.07
25,CTCGGCACGTGGTTGT,-0.16
26,TATGTCACGTGCCGTG,-0.04

row,Sequence,relative binding free energy [kcal/mol]
1,GTATTCACGTGAAGTT,0.38
2,GTTACCACGTGAGGGT,0.21
3,TAGGGCACGTGAGCTA,-0.04
4,AATAGCACGTGTAGTT,-0.13
5,CTAATCACGTGGGTAG,0.02
6,AGGATCACGTGGCAAG,0.24
7,ATGTGCACGTGGGGAA,-0.06
8,GTAAGCACGTGCAGGT,-0.24
9,ATGGGCACGTGGCGAG,-0.12
10,GCGGTCACGTGGTCTG,0.1
11,ATAATCACGTGGTGGG,0.01
12,TCGTTCACGTGGAGGT,0.18
13,TTGGTCACGTGTCAGA,0.16
14,ATTGTCACGTGGTATA,0.04
15,TTTTCCACGTGAGGAG,0.29
16,TAGGGCACGTGAGGCA,0.08
17,GGTGTCACGTGTTAAG,0.13
18,TAGTACACGTGCTGTG,-0.02
19,TTAGTCACGTGGTTTT,0.09
20,ACAGGCACGTGAGGTT,0.01
21,AATAGCACGTGTTGAG,-0.17
22,AAGTTCACGTGTGGCT,0.32
23,GAGGACACGTGAATGT,0.39
24,TGACGCACGTGGGTGA,-0.35
25,GGGTTCACGTGATAAG,0.39
26,AGTGCCACGTGCGTGG,-0.27

row,Sequence,relative binding free energy [kcal/mol]
1,TGCATCACGTGGGCGG,-0.17
2,GCAGTCACGTGTCGGT,0.14
3,ACGGGCACGTGAGGAG,0.22
4,TTGCACACGTGCGGGG,-0.02
5,GAAAGCACGTGGGGCT,-0.19
6,CAGTGCACGTGTTCGG,0.06
7,CAGGACACGTGGGGGG,-0.12
8,GCTATCACGTGTTGGG,0.18
9,GTAGTCACGTGTCTTG,0.14
10,GGTTACACGTGACGTA,0.34
11,ACGGGCACGTGTAGGA,0.12
12,TGGCTCACGTGTTAGT,0.32
13,ATAGTCACGTGGATAG,0.17
14,GGGGTCACGTGTTTTC,0.12
15,CGTAACACGTGAAGGG,0.3
16,TATTTCACGTGATCTG,0.27
17,TGATTCACGTGTAACG,0.25
18,TCAAGCACGTGTTTGG,-0.1
19,GTATTCACGTGGTCTG,0.06
20,GTAGTCACGTGTAAAT,0.41
21,TACTGCACGTGGGGCG,-0.25
22,AGTAACACGTGTTTCT,0
